Measurements from the supplement of paper PMC4604168 (melanoma cell lines).
The other results are listed elsewhere or left out. Many values rest on one well or one pass, so single values are uncertain.

Legend:
Assay in all cases: cell count relative to DMSO control; melanoma cells; higher = more viable cells
Details in all cases: library dose: low library concentration; 72 h
[1] = tested on: MZ2-MEL
[2] = tested on: MeWo
[3] = tested on: RPMI7951
[4] = tested on: RVH-421
[5] = tested on: SkMel28
[6] = tested on: SkMel2
[7] = tested on: SkMel30
[8] = tested on: UACC62
[9] = tested on: WM115
[10] = tested on: WM1716
[11] = tested on: WM1745
[12] = tested on: WM3526
[13] = tested on: WM3619
[14] = tested on: WM451Lu
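Also: cell number obtained by counting DAPI-stained nuclei in high-throughput microscope images with image analysis software, screen run in 1,536-well plates.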

SMILES | cell count [1] | cell count [2] | cell count [3] | cell count [4] | cell count [5] | cell count [6] | cell count [7] | cell count [8] | cell count [9] | cell count [10] | cell count [11] | cell count [12] | cell count [13] | cell count [14]
CC[C@]1(O)C[C@H]2CN(CCc3c([nH]c4ccccc34)[C@@](C(=O)OC)(c3cc4c(cc3OC)N(C=O)[C@H]3[C@@](O)(C(=O)OC)[C@H](OC(C)=O)[C@]5(CC)C=CCN6CC[C@]43[C@@H]65)C2)C1 [vincristine] + Nc1ccn([C@@H]2O[C@H](CO)[C@@H](O)C2(F)F)c(=O)n1 [gemcitabine] (first compound 0.0001 µM, partner dose 0.0004 µM) | 103% | 78.7% | 61.9% | 83.8% | 78.4% | 93.8% | 62.7% | 57.1% | 58.3% | 48.8% | 82.3% | 71.5% | 62% | 58.4%
Cc1cc(Nc2cc(N3CCN(C)CC3)nc(Sc3ccc(NC(=O)C4CC4)cc3)n2)n[nH]1 [Tozasertib] + CNC(=O)c1cc(Oc2ccc(NC(=O)Nc3ccc(Cl)c(C(F)(F)F)c3)cc2)ccn1 [sorafenib] (first compound 0.006 µM, partner dose 0.4 µM) | 100% | 96.4% | 115% | 88.5% | 86.1% | 102% | 114% | 86.3% | 90.2% | 80.3% | 87.9% | 106% | 78.4% | 107%
Cc1cc(Nc2cc(N3CCN(C)CC3)nc(Sc3ccc(NC(=O)C4CC4)cc3)n2)n[nH]1 [Tozasertib] + CC(=O)O[C@@]12CO[C@@H]1C[C@H](O)[C@@]1(C)C(=O)[C@H](O)C3=C(C)[C@@H](OC(=O)[C@H](O)[C@@H](NC(=O)OC(C)(C)C)c4ccccc4)C[C@@](O)([C@@H](OC(=O)c4ccccc4)[C@H]21)C3(C)C [Docetaxel] (first compound 0.006 µM, partner dose 0.0001 µM) | 66.6% | 65.6% | 33.8% | 74.3% | 60.9% | 66% | 50.7% | 55.8% | 72.7% | 51.3% | 58.4% | 53.1% | 70.1% | 70.5%
Cc1cc(Nc2cc(N3CCN(C)CC3)nc(Sc3ccc(NC(=O)C4CC4)cc3)n2)n[nH]1 [Tozasertib] + C[C@@H](N)c1ccc(C(=O)Nc2ccnc3[nH]ccc23)cc1 [RKI983] (first compound 0.006 µM, partner dose 0.4 µM) | 84% | 94.6% | 80.8% | 62.1% | 97.1% | 99.6% | 89.8% | 75.9% | 109% | 56.1% | 99.7% | 111% | 132% | 60.5%
CC[C@]1(O)C[C@H]2CN(CCc3c([nH]c4ccccc34)[C@@](C(=O)OC)(c3cc4c(cc3OC)N(C=O)[C@H]3[C@@](O)(C(=O)OC)[C@H](OC(C)=O)[C@]5(CC)C=CCN6CC[C@]43[C@@H]65)C2)C1 [vincristine] + CCN(CC)CCNC(=O)c1c(C)[nH]c(/C=C2\C(=O)Nc3ccc(F)cc32)c1C [sunitinib] (first compound 0.0001 µM, partner dose 0.4 µM) | 103% | 90.6% | 84.5% | 97.2% | 101% | 110% | 72.2% | 88.8% | 66.1% | 75.9% | 85.5% | 89.5% | 104% | 80.5%
CC[C@]1(O)C[C@H]2CN(CCc3c([nH]c4ccccc34)[C@@](C(=O)OC)(c3cc4c(cc3OC)N(C=O)[C@H]3[C@@](O)(C(=O)OC)[C@H](OC(C)=O)[C@]5(CC)C=CCN6CC[C@]43[C@@H]65)C2)C1 [vincristine] + C=CCNC1=C2C[C@@H](C)C[C@H](OC)[C@H](O)[C@@H](C)/C=C(\C)[C@H](OC(N)=O)[C@@H](OC)/C=C\C=C(/C)C(=O)NC(=CC1=O)C2=O [Tanespimycin] (first compound 0.0001 µM, partner dose 0.002 µM) | 104% | 83.4% | 41.4% | 75.3% | 95.4% | 95.9% | 53.3% | 73% | 59.4% | 46.6% | 89.9% | 65.3% | 42.7% | 52.6%
N#CC[C@H](C1CCCC1)n1cc(-c2ncnc3[nH]ccc23)cn1 [ruxolitinib] + CC(=O)c1c(C)c2cnc(Nc3ccc(N4CCNCC4)cn3)nc2n(C2CCCC2)c1=O [palbociclib] (first compound 1 µM, partner dose 0.04 µM) | 91.5% | 80.8% | 77.2% | 99.4% | 107% | 105% | 71.1% | 79.1% | 93.6% | 71.2% | 82.4% | 66.2% | 75.7% | 86.5%
N#CC[C@H](C1CCCC1)n1cc(-c2ncnc3[nH]ccc23)cn1 [ruxolitinib] + COCC[n+]1c2c(n(Cc3cnccn3)c1C)C(=O)c1ccccc1C2=O [YM155] (first compound 1 µM, partner dose 0.0004 µM) | 53.4% | 101% | 63.4% | 111% | 120% | 102% | 99.2% | 98.7% | 102% | 99.1% | 104% | 125% | 117% | 68.3%
